Test results published in ChEMBL document CHEMBL4888484, “Replenishing the malaria drug discovery pipeline: Screening and hit evaluation of the MMV Hit Generation Library 1 (HGL1) against asexual blood stage Plasmodium falciparum ,using a nano luciferase reporter read-out” (2022).
Out of some 150,000 compounds screened, about 540 (0.36%) showed an effect of 50% or more. The list shows a part of the results.

Tested on: Plasmodium falciparum
Experiment: Primary screen in NF54 nanoGlo assay, in single point, at 2uM, 72h; a lower Z score goes with more inhibition
Assay type: functional, Erythrocyte
Conditions: timepoint 72 hour

Row | Structure (SMILES) | % Inhibition [%] | Z score
1 | Cc1ccsc1CN(C)CCn1cnnc1C | -9 | 1.55
2 | COc1ccc(CN2CCN(CC3CCC3)CC2)c(OC)c1OC | -12 | 1.64
3 | CC(C)CCc1nnc(NCc2cccc3cn[nH]c23)o1 | 25 | -3.15
4 | CC(C)OCCCNC(=O)N1CCC[C@]1(C)CO | -5 | 0.88
5 | Cc1cc(N2CCN(c3ccccc3Cl)CC2)n2cc(-c3ccccc3)nc2n1 | 5 | -0.73
6 | COc1ccc(NC(=O)c2c(NC(=O)c3ccncc3)sc3c2CC[C@H](C(C)(C)C)C3)cc1 | 0 | -0.01
7 | Cc1cnc(NCC(C)(C)N2CCCC2)nc1N(C)C | -4 | 0.77
8 | COc1cccc(F)c1[C@H](C)NCC(=O)N1CCC(C)CC1 | -1 | 0.18
9 | COCC(=O)NCCc1ccc(C)c(OC)c1 | -7 | 1.13
10 | CC(C)(CNC(=O)[C@@H]1CCC(=O)N1)C1=CCCC1 | 40 | -5.79
11 | COC(=O)[C@@H](NCc1ccc(C)cc1)C(C)(C)C | 0 | -0.02
12 | CCC(CC)NC(=O)COc1ccc(C)cc1 | 13 | -1.67
13 | C[C@]1(COc2ccncc2)CCCN(Cc2ccc(Cl)c(F)c2)C1 | -5 | 0.8
14 | O=C(O)[C@@H]1CCCN1C(=O)[C@H](Cc1ccccc1)NC(=O)[C@H](Cc1ccccc1)n1c(O)nc2ccccc2c1=O | -7 | 0.82
15 | OC1CCC(Nc2nc(-c3ccccn3)nc3c2CCC3)CC1 (stereo not drawn) | 32 | -3.61
16 | Cc1sc(-c2nc(C(C)C)cs2)cc1S(=O)(=O)NCc1ccc(N(C)C)cc1 | -6 | 0.7
17 | CCNc1ccc(C(=O)OCC)cc1NC(=O)CC(C)(C)C#N | -6 | 1.07
18 | Cc1ccc(CN2CC(CN(CC(C)C)C(=O)c3ccccc3)C(c3ccc(F)cc3)C2)cc1 (stereo not drawn) | -7 | 1.26
19 | COc1cc(NC(=O)N[C@@H](C)c2c(C)nn(C)c2C)cc(-n2cnnn2)c1 | 5 | -0.72
20 | CC(C)N1CCCC[C@@H]1COc1ccc(CCO)cc1 | 5 | -0.87
21 | Cn1ncc(C(=O)Nc2nnc(C3CC3)n2C)c1C(F)F | -3 | 0.4
22 | COC[C@]1(C)NC(=O)N(Cc2nc(C)c(C)s2)C1=O | 14 | -1.79
23 | Cc1cc(NC(=O)CN2CCN(S(=O)(=O)c3cc(F)ccc3F)CC2)ccc1N1CCCC1 | -5 | 0.68
24 | C#CCN1CCC(N2CC(=O)N(c3ccccc3)C2=O)CC1 | -5 | 0.57
